Data from PubChem BioAssay AID1030 (National Center for Advancing Translational Sciences (NCATS), 2008).
About 16,000 (7.3%) of roughly 220,000 compounds were called active. Inconclusive results, whose numbers are uncertain, are shown with a selection of clear calls. The call rests on the fitted dose curve; in most records, active means well fitted inhibition curve with a large enough effect (not every such curve was filed as active); inconclusive means small, poorly fitted or top-dose-only effect, or another doubt; inactive means no such curve, though single readings can be large or run the other way. Potencies of inconclusive entries are left out as doubtful fits.

target: Aldehyde dehydrogenase 1A1 (Homo sapiens) (UniProt P00352); experiment: qHTS Assay for Inhibitors of Aldehyde Dehydrogenase 1 (ALDH1A1); details: Purified ALDH1A1, NADH fluorescence, propionaldehyde substrate; series mostly up to 75.3 µM; activity, negative = inhibition: at the top concentration;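 on activity, negative = inhibition: plate controls were no enzyme wells and a reference inhibitor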
Chain of UniProt P00352 (P00352 whole entry, looked up): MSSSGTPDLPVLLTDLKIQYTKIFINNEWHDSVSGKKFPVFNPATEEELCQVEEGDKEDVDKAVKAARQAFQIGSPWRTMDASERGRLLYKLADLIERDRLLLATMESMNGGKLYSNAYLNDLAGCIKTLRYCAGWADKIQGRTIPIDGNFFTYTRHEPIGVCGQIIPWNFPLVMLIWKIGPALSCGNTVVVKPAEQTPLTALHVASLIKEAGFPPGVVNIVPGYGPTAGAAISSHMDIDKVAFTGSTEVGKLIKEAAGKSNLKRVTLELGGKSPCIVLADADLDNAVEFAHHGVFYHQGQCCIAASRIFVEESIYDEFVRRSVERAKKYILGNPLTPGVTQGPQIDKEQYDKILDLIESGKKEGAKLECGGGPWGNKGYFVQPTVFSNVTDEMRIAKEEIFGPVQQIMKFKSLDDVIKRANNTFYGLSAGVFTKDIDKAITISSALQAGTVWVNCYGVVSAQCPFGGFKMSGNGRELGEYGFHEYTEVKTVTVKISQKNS
Potency means the concentration at half of the fitted maximal effect; tags describe the fitted curve by direction and shape.

Structure (SMILES)	Potency	activity, negative = inhibition
O=C(COc1ccc(C(=O)c2ccccc2)cc1)NCC(=O)Nc1ccccc1Br	inconclusive [inhibitor, single point]	
Cc1cc(-c2nnc(CCC(=O)NC(Cc3ccccc3)c3ccccc3)o2)no1 (configuration not stated)	inconclusive [inhibitor, partial curve, poor fit]	
COc1ccc(N2CCN(C(=O)Cn3c(=O)[nH]c4ccccc4c3=O)CC2)cc1		inactive: 1.98%
CCC(=O)NCCc1nc2ccccc2n1CC(=O)c1ccccc1		inactive: 12.3%
COc1cc(C(c2nnnn2C2CCCC2)N2CCc3ccccc3C2)ccc1O (configuration not stated)	inconclusive [inhibitor, single point]	
CSCCCNC(=S)N(C)CC(=O)Nc1ccc(C)cc1		inactive: -12.3%
Cc1ccc2nc(-c3cccc(N)c3)oc2c1	inconclusive [inhibitor, partial curve]	
CCCn1c(N2CCN(C(=O)N3CCCCC3)CC2)nc2ccccc21	inconclusive [inhibitor, partial curve]	
COc1cccc2c(=S)c(CCC(C)=O)c(C)[nH]c12	inconclusive [inhibitor, partial curve]	
Cc1cccc(CC2CC(=O)N(CCc3ccc4c(c3)OCO4)C2=O)c1 (configuration not stated)	inconclusive [inhibitor, single point]	
O=c1ccc2ccc(OCc3nnc(-c4ccccc4Br)o3)cc2o1	inconclusive [inhibitor, single point]	
CCc1nc2ccccc2c(NC(=O)CN2CC(C)CC(C)C2)c1C (configuration not stated)		inactive: 4.84%
Cc1ccc(-c2nc(Nc3cccc(C)c3)sc2CC(=O)O)cc1	inconclusive [inhibitor, single point]	
CC(=O)Nc1ccc(S(=O)(=O)C(C#N)c2nc3ccccc3nc2NCCCO)cc1 (configuration not stated)	inconclusive [inhibitor, partial curve]	
Cc1noc(C)c1CSc1ncnc2sc3c(c12)CCC(C)C3 (configuration not stated)	inconclusive [inhibitor, single point]	
COC(=O)c1ccc(C(NC(=O)OCc2ccccc2)/C(=C/[C@@H](C)C(=O)NCc2nc3ccccc3s2)c2cccnc2)cc1 (some centres not stated)		inactive: -7.33%
CC(C)C(C(=O)OCC(=O)c1ccccc1)N1C(=O)C2C3C=CC(C3)C2C1=O (configuration not stated)		inactive: 6.95%
COc1ccc(N(C(=O)c2ccco2)C(C(=O)NC2CCCC2)c2ccc(N(C)C)cc2)cc1OC (configuration not stated)	inconclusive [inhibitor, single point]	
CCN(C(=O)COC(=O)/C=C/c1ccc(O)c(OC)c1)C1CCS(=O)(=O)C1 (configuration not stated)		inactive: 5.61%
CCCCn1c(=O)c(CCC(=O)OCC(=O)Nc2cccc3ccccc23)nc2ccccc21	inconclusive [inhibitor, single point]	
O=C(NCc1ccccc1)Nc1cccn(Cc2ccccc2)c1=O	inconclusive [inhibitor, single point]	
O=C1OC(c2cccs2)=N/C1=C\c1ccc(-c2ccccc2Cl)o1	inconclusive [inhibitor, single point]	
CN(C)CCCN1C(=O)C(=O)/C(=C(/O)c2ccc(OCc3ccccc3)cc2)C1c1cccnc1 (configuration not stated)	inconclusive [inhibitor, single point]	
CC(C)C1Cc2c(C#N)c(N)sc(=S)c2CO1 (configuration not stated)	inconclusive [inhibitor, single point]	

Structure (SMILES)	Potency	activity, negative = inhibition
Cc1cccc(OCC(=O)NNC(=O)c2cc3ccccc3oc2=O)c1	inconclusive [inhibitor, single point]	
CCOc1ccccc1NC(=O)c1cc(SC)ccc1Cl		inactive: -5.48%
CCOC(=O)c1c(NC(=O)C2=C(C)NC(=S)NC2c2ccc(F)cc2)sc(C)c1C (configuration not stated)	active: 14.1 µM	
CCN(CC)S(=O)(=O)c1ccc(N2CCOCC2)c(NC(=O)c2cc(C)cc(C)c2)c1	inconclusive [inhibitor, single point]	
CNc1oc(-c2ccco2)nc1C#N	inconclusive [inhibitor, partial curve]	
Cc1cc(C)n2c(SCC(=O)Nc3ccc(F)cc3)nnc2n1	active: 14.1 µM	
COc1cccc(-c2ccc3ncnc(NCc4cccnc4)c3c2)c1	inconclusive [inhibitor, single point]	
C/C(=N\NC(=O)c1ccccc1-n1cccc1)C1CC1	active: 3.98 µM	
CCN(c1ccccc1)S(=O)(=O)c1ccc(C(=O)Oc2ccc(C(C)=O)cc2)cc1		inactive: 0.406%
CC1(C)Cc2c(c(N3CCOCC3)nc3sc4c(NCC5CCCO5)nnnc4c23)CS1 (configuration not stated)	inconclusive [inhibitor, partial curve, poor fit]	
Cc1cc(C)c(S(=O)(=O)Nc2ccccc2C(=O)OCC(=O)NCc2ccccc2)c(C)c1		inactive: 10.1%
Cc1sc(-c2cccnc2)nc1OC(=O)C1CC1	inconclusive [inhibitor, single point]	
Cc1ccc2[nH]c3c(N4CCN(Cc5ccccc5)CC4)ncnc3c2c1	inconclusive [inhibitor, partial curve]	
COC(=O)c1cccc(-n2[nH]nnc2=S)c1	active: 2.82 µM	
CCN1C(=O)c2cccc3c(NC(=O)c4ccc(S(=O)(=O)N(C)C)cc4)ccc1c23	active: 2.82 µM	
CC1CN(C(=S)NC(=O)c2cccc([N+](=O)[O-])c2)CC(C)O1 (configuration not stated)	inconclusive [inhibitor, single point]	
CC(C)(C)NS(=O)(=O)c1ccc(N2C(=O)c3ccccc3C2=O)cc1		inactive: 2.1%
Cc1ccc(C(=O)/C=C/c2cn(CC(O)CN3CCOCC3)c3ccccc23)cc1 (configuration not stated)	inconclusive [inhibitor, single point]	
COc1ccc(-c2csc(NC(=O)c3cc(C)on3)c2C#N)cc1OC	inconclusive [inhibitor, single point]	
CCN(CC)CCCN(C(=O)c1cccs1)c1nc(-c2ccc(OC)cc2)cs1	inconclusive [inhibitor, single point]	
Cc1ccc(C(=O)Nc2ccccc2-c2ccccc2)cc1[N+](=O)[O-]	active: 17.8 µM	
CC(NC(=O)/C(=C/c1ccc(OC(F)F)cc1)c1ccccc1)c1ccccc1 (configuration not stated)		inactive: -2.29%
COc1ccc2[nH]c(=O)c(CN(Cc3nnnn3Cc3ccco3)C3CCCCC3)cc2c1	inconclusive [inhibitor, partial curve]	
COc1ccc(NC(=O)C2CC2)cc1NS(=O)(=O)c1ccc(F)cc1		inactive: 9.92%

Structure (SMILES)	Potency	activity, negative = inhibition
O=C(O)COc1ccccc1/C=C1\SC(=O)N(Cc2ccc(F)cc2)C1=O		inactive: -6.08%
Cc1nn(CC(=O)Nc2cccnc2N2CCOCC2)c(=O)c2ccccc12	inconclusive [inhibitor, single point]	
COc1ccc(CC2(CO)CCN(S(=O)(=O)N(C)C)CC2)cc1	inconclusive [inhibitor, single point]	
COc1ccc(CNC(=O)CN(c2ccccc2)S(=O)(=O)c2ccccc2[N+](=O)[O-])cc1	inconclusive [inhibitor, single point]	
CCCCn1nc2cc(C(=O)NCCc3ccc(C)cc3)ccc2c1OCC	inconclusive [inhibitor, single point]	
CC(C)COc1ccc(C(=O)NCc2ccco2)cc1	inconclusive [inhibitor, single point]	
COc1ccc(N=C2O/C(=C/c3sc(=S)n(CC4CCCO4)c3O)N=C2C#N)cc1 (configuration not stated)	active: 1.12 µM	
O=C(CSC1=NCCN1)NC1CCCCCC1	inconclusive [inhibitor, full curve, poor fit]	
O=C(CCSc1ccccc1Cl)Nc1cccc([N+](=O)[O-])c1	inconclusive [inhibitor, single point]	
Cc1nc(SCC(=O)Nc2ccnc3ccccc23)n[nH]1	active: 17.8 µM	
O=C(CSc1nc2ccccc2c(=O)n1-c1ccccc1)N1CCc2ccccc2C1	inconclusive [inhibitor, partial curve]	
CC(C)(C)NC(=O)C(=O)NN=C1CCCCCCCCCCC1		inactive: -11.3%
Fc1ccc(/C=N/NC2=Nc3cccc4cccc2c34)cc1		inactive: 7.77%
N#C/C(=C(/O)COC(=O)c1ccc(C#N)cc1)c1nc2ccccc2s1		inactive: -7.23%
CCOC(=O)C1CCCN(C(=O)Cc2ccc(Cl)cc2)C1 (configuration not stated)	inconclusive [inhibitor, single point]	
CC(=O)Nc1ccc(S(=O)(=O)Oc2cccc(/C=C3\SC(N)=NC3=O)c2)cc1	inconclusive [inhibitor, partial curve]	
CC(NC(=O)c1cc(F)c(F)cc1Cl)c1ccncc1 (configuration not stated)		inactive: 0.747%
Fc1cccc(Cl)c1CSc1ccc(-c2ccco2)nn1	active: 20 µM	
Cc1cc(C)c2cc(C#N)c(NCCNC(=S)NCCCN3CCOCC3)nc2c1	inconclusive [inhibitor, partial curve]	
COC(=O)c1c(NC(=O)CN2CCN(c3cccc(Cl)c3)CC2)sc(C)c1C		inactive: 5.27%
O=C(C(c1ccccc1)c1ccccc1)N1CCN(Cc2ccco2)CC1	inconclusive [inhibitor, single point]	
COc1ccc(OC)c(N(CC(=O)Nc2cccnc2)S(=O)(=O)c2ccc(C)cc2)c1		inactive: -7.2%
O=C(Cn1cnc2ccccc21)OCC(=O)N1CCc2ccccc2C1	active: 28.2 µM	
FC(F)(F)c1cccc(Cc2noc(CN3C[C@@H]4CCC[C@H]3C4)n2)c1	inconclusive [inhibitor, single point]	
